Results from PubChem BioAssay AID493208 (National Center for Advancing Translational Sciences (NCATS), 2011).
Hit rate of the full screen: of about 44,000 compounds, about 340 (0.77%) were called active. Another 5% or so got no clear call; they are omitted. Calls follow the shape of the dose curve; as a rule, active = well fitted inhibition curve with a large enough effect; inconclusive = small, poorly fitted or top-dose-only effect; inactive = flat fitted curve, though single readings scatter. Some of the results follow.

Test: Acumen qHTS Assay for Inhibitors of the mTORC1 Signaling Pathway in MEF (Tsc2-/-, p53-/-) Cells: Sytravon; also: nearly all actives have a fitted effect of over 50% in size;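 as to activity change, negative = inhibition: plate controls were DMSO for no effect and rapamycin for full effect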
Conditions: phospho-rpS6 immunofluorescence/PI, 24 h; series mostly up to 38.3 µM; activity change, negative = inhibition: at the top concentration
How it was run: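 Tsc2-/-, p53-/- MEFs (empty-vector stable line) in DMEM + 10% FBS were treated with compounds 24 h at 37 degree Celsius, fixed, and immunostained for phospho-rpS6 (Alexa-488) with propidium iodide counterstain. Laser-scanning cytometry gave % positive cells, normalized against 7.5 nM rapamycin and DMSO.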
Potency is read from the fitted curve at half-maximal effect.

Structure (SMILES)	activity change, negative = inhibition	Potency
COc1ccc(-c2nc(CSc3nnc(C)n4c3cc3occc34)c(C)o2)cc1OC	inactive: 2.1%	
CCc1ccc(-n2nc(C)c3c(C)cc(=O)n(CC(=O)Nc4ccc(C(C)=O)cc4)c32)cc1	inactive: 6.82%	
O=C(Cn1ncc2c3ccccc3n(Cc3ccc(F)cc3)c2c1=O)NCCC1=CCCCC1	inactive: -0.0438%	
Cc1nn(C(=O)c2ccc(Cl)cc2)c(C)c1S(=O)(=O)N1CCOCC1	inactive: -2.56%	
Cc1c(C(=O)Nc2ccc(C(C)C)cc2)sc2nc3n(c(=O)c12)CCC3	inactive: 0%	
Cc1cn2c(=O)cc(COC(=O)c3cccc(NC(=O)c4ccccc4Cl)c3)nc2s1	inactive: 6.17%	
CCc1ccc(CNC(=O)CN2C(=O)CSc3c2c(C)nn3-c2ccccc2)cc1	inactive: -5.11%	
COc1ccc(NC(=O)CC2C(=O)N(c3cccc(C)c3)C(=O)N2Cc2cccnc2)cc1 (stereo unspecified)	inactive: -5.45%	
Cc1ccc(CNc2ncnc3c2nnn3C)cc1	inactive: -6.4%	
Cc1ccc(C)c(NC(=O)Nc2csc3c2CCCC3)c1	inactive: -10.9%	
CCOc1ccc2nc(N3CCCC(C(=O)NCc4ccc(C)cc4)C3)sc2c1 (stereo unspecified)	inactive: -0.477%	
CC(C)NC(=O)C1CCN(C(=O)N2CC(C)Oc3ccccc32)CC1 (stereo unspecified)	inactive: 5.53%	
COc1ccccc1NC(=O)Cn1c(=O)n(Cc2nc(-c3ccccc3)no2)c(=O)c2ccccc21	inactive: -5.17%	
CCC1=C(c2ccc(C)cc2)S(=O)(=O)N=C1N1CCC(C(=O)N2CCCCC2)CC1	inactive: -3.96%	
CCS(=O)(=O)NCCc1csc2nc(-c3ccc(C)cc3)nn12	inactive: 0.848%	
COc1ccc(NC(=O)Cn2cc(C(=O)c3cccs3)c3ccccc32)cc1	inactive: -17.4%	
O=C(COCc1cc(-c2cccs2)on1)Nc1cccc(O)c1	inactive: 0.435%	
Cc1cccc(-n2c(-c3ccco3)nc3c(cnn3-c3ccc(F)cc3)c2=O)c1	inactive: -4.24%	
Cc1ccc(-n2cnc3cc(C(=O)NC4CCCCCC4)ccc32)cc1Cl	inactive: 0%	
COC(=O)c1c(C)sc(-c2c(-c3ccc4c(c3)OCCO4)[nH]c3c2c(=O)[nH]c(=O)n3C)c1O	inactive: -1.09%	
COc1ccc(-c2nn(C)c3sc(C(=O)N4CCN(c5cccc(Cl)c5)CC4)cc23)cc1OC	inactive: 4.15%	

Structure (SMILES)	activity change, negative = inhibition	Potency
CC1CCc2c(sc(NC(=O)c3cc(-c4ccc(Br)cc4)on3)c2C(N)=O)C1 (stereo unspecified)	inactive: 0.717%	
Cc1c(CNCCCc2ccccc2)c(C(=O)O)c(C)n1Cc1cccc(Cl)c1	inactive: -0.172%	
COc1ccc(NC(=O)C2CCN(S(=O)(=O)c3c(C)noc3/C=C/c3ccc(C)cc3)CC2)cc1Cl	inactive: 2.02%	
COc1ccc(S(=O)(=O)c2cn(C)c3cc(N4CCOCC4)c(F)cc3c2=O)cc1	inactive: 1.07%	
Cc1ccc(NS(=O)(=O)c2ccc3[nH]c4c(c3c2)CCCCC4)cc1	inactive: -11.9%	
Cc1ccc(OCc2cc(=O)n3cc(C)sc3n2)c(C)c1	inactive: -3.36%	
CCc1ccc(OCC(=O)Nc2ccc(Cl)c(-c3nc4ncccc4o3)c2)cc1	inactive: -4.1%	
CCc1ccc(OCC(=O)Nc2ccc3oc(-c4ccc(OC)cc4)nc3c2)cc1		active: 13.1 µM
O=C(COc1ccccc1)Nc1c(Cl)ccc2nsnc12	inactive: -0.78%	
COC(=O)CC1Oc2ccc(Cl)cc2-n2cc(-c3ccc(F)cc3)nc21 (stereo unspecified)	inactive: -16%	
Cc1ccc(C)c(N(C)S(=O)(=O)c2ccc3[nH]cc(C(=O)NC4CCCC4)c(=O)c3c2)c1	inactive: 3.29%	
CCN1CCN(C(=O)c2c(C)nn(-c3ccc(F)cc3)c2-n2cccc2)CC1	inactive: 3.64%	
CC(C)(C)NC(=O)CCSc1nc(-c2ccc3c(c2)OCO3)cc(C(F)(F)F)n1	inactive: 8.97%	
CCOC(=O)c1cccc(NC(=O)c2nn(-c3ccc(OC)cc3)c(=O)c3c2c2ccccc2n3C)c1	inactive: 1.01%	
CN(Cc1ccccc1)c1ccc(-c2nc(-c3cccnc3)no2)cc1[N+](=O)[O-]	inactive: 4.16%	
CCN(Cc1ccccc1)S(=O)(=O)c1ccc2[nH]c3c(c2c1)CCCCC3	inactive: -7.52%	
Cc1cc(-c2nc3ncccc3o2)ccc1NC(=O)COc1cc(C)c(Cl)c(C)c1	inactive: 0.862%	
CCC(C(=O)NCCc1cc(OC)ccc1OC)n1nc(C)c2sc3ccccc3c2c1=O (stereo unspecified)	inactive: -14.9%	
CN(C)c1ccc(CNC(=O)c2cccn2-c2nnc(N3CCCCC3)s2)cc1	inactive: -6.4%	
CCOC(=O)c1cnc2nc(NCc3ccc(OCC)cc3)[nH]n2c1=O	inactive: -1.21%	
Cc1ccc(C)c(NC(=O)CSc2nc(-c3ccccc3Cl)nc3c2Cc2c(CO)cnc(C)c2O3)c1	inactive: -1.5%	

Structure (SMILES)	activity change, negative = inhibition	Potency
CCCCOc1ccc(C(=O)NCCc2csc(-c3ccc(OC)cc3)n2)cc1	inactive: -21%	
O=C(NCc1ccc(F)cc1)C(=O)NCC(c1cccs1)S(=O)(=O)c1cccs1 (stereo unspecified)	inactive: -0.381%	
COc1ccccc1CNC(=O)c1ccc2c(c1)N(Cc1ccc(C)cc1)CCS2	inactive: -1.84%	
CCc1ccccc1NC(=O)CN1C(=O)COc2ccc(S(=O)(=O)N3CCCCCC3)cc21	inactive: -4.01%	
CCN(CC)S(=O)(=O)c1ccc2c(c1)N(CC(=O)NCC(C)c1ccccc1)C(=O)CO2 (stereo unspecified)	inactive: -3.53%	
CCn1cc(C(=O)N2CCN(c3ccccc3OC)CC2)c(=O)c2cc(S(=O)(=O)N3CCC(C)CC3)ccc21	inactive: 3.36%	
CC(C)Oc1ccc(CNC(=O)c2ccccc2NC(=O)c2nsc3ccccc23)cc1	inactive: 12%	
Cc1ccc(NC(=O)CSc2nc3ccc(NC(=O)CCc4ccccc4)cc3s2)c(C)c1	inactive: 0.282%	
CCN(CC)C(=O)C1=CC(c2ccc3c(c2)OCO3)=NS(=O)(=O)N1C	inactive: 3.85%	
O=C(CCCCn1c(=O)c2ccccc2n(Cc2ccccc2F)c1=O)NCc1ccccc1Cl	inactive: -3.99%	
O=S(=O)(NCCc1nnc2ccc(SCc3c(F)cccc3Cl)nn12)c1ccccc1	inactive: 3.01%	
Cc1oc(-c2ccccc2F)nc1CSCC(=O)NCCc1ccccc1	inactive: 2.26%	
CCC(Oc1ccccc1)C(=O)Nc1ccc(OCc2cc(=O)n3ccc(C)cc3n2)cc1 (stereo unspecified)	inactive: 3.22%	
CC(C)CCNC(=O)c1cc(Sc2ccc(F)cc2F)nc2ccccc12	inactive: 2.31%	
COc1ccc(N2C(=O)CS(=O)(=O)C23C(=O)N(Cc2c(F)cccc2Cl)c2ccccc23)cc1 (stereo unspecified)	inactive: -4.61%	
COc1ccc(NC(=O)C2=C(C)Nc3ncnn3C2c2ccccn2)cc1 (stereo unspecified)	inactive: -0.701%	
CCCCn1cc(S(=O)(=O)c2ccccc2)c(=O)c2cc(F)c(N3CCC(C)CC3)cc21	inactive: -0.184%	
CCOC(=O)c1cnc2c(C)cc(C)cc2c1Nc1ccc(OCc2ccccc2)cc1	inactive: 12.8%	
O=C(CN1CCN(CC(=O)Nc2ccccc2F)CC1)Nc1ccc(Cl)c(C(F)(F)F)c1	inactive: -11.2%	
